Source: paper PMC9668993, “CBP-HSF2 structural and functional interplay in Rubinstein-Taybi neurodevelopmental disorder” (Nature Communications, 2022)
Results are given in words; binding and its absence hold for the method and conditions named. For some of these results: In cells and extracts the contact can be indirect. Some entries that bind do so weakly or less than the wild type. Blank lines part the entries; values can stand above or below the substance they belong to.

By UniProt entry, the sequences of proteins in these tests, tags left out. Where a name states a change or a piece, a line headed by the entry shows the natural chain unless it says otherwise. Residues count along the entry.
UniProt Q03933: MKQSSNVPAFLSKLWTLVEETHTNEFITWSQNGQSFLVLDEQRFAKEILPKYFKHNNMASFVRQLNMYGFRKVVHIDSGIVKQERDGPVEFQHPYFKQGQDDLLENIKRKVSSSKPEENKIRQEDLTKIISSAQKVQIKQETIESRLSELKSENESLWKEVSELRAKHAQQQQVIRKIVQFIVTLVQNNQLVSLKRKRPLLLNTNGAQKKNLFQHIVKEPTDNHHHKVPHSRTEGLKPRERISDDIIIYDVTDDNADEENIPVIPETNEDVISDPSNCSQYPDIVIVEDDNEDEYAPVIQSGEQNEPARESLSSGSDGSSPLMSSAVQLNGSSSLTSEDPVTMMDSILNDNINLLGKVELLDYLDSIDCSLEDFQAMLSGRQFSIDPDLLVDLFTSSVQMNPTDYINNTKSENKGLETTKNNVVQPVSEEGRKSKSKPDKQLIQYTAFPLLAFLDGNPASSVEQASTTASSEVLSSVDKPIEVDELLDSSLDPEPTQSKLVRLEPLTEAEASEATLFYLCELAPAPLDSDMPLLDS
UniProt P45481: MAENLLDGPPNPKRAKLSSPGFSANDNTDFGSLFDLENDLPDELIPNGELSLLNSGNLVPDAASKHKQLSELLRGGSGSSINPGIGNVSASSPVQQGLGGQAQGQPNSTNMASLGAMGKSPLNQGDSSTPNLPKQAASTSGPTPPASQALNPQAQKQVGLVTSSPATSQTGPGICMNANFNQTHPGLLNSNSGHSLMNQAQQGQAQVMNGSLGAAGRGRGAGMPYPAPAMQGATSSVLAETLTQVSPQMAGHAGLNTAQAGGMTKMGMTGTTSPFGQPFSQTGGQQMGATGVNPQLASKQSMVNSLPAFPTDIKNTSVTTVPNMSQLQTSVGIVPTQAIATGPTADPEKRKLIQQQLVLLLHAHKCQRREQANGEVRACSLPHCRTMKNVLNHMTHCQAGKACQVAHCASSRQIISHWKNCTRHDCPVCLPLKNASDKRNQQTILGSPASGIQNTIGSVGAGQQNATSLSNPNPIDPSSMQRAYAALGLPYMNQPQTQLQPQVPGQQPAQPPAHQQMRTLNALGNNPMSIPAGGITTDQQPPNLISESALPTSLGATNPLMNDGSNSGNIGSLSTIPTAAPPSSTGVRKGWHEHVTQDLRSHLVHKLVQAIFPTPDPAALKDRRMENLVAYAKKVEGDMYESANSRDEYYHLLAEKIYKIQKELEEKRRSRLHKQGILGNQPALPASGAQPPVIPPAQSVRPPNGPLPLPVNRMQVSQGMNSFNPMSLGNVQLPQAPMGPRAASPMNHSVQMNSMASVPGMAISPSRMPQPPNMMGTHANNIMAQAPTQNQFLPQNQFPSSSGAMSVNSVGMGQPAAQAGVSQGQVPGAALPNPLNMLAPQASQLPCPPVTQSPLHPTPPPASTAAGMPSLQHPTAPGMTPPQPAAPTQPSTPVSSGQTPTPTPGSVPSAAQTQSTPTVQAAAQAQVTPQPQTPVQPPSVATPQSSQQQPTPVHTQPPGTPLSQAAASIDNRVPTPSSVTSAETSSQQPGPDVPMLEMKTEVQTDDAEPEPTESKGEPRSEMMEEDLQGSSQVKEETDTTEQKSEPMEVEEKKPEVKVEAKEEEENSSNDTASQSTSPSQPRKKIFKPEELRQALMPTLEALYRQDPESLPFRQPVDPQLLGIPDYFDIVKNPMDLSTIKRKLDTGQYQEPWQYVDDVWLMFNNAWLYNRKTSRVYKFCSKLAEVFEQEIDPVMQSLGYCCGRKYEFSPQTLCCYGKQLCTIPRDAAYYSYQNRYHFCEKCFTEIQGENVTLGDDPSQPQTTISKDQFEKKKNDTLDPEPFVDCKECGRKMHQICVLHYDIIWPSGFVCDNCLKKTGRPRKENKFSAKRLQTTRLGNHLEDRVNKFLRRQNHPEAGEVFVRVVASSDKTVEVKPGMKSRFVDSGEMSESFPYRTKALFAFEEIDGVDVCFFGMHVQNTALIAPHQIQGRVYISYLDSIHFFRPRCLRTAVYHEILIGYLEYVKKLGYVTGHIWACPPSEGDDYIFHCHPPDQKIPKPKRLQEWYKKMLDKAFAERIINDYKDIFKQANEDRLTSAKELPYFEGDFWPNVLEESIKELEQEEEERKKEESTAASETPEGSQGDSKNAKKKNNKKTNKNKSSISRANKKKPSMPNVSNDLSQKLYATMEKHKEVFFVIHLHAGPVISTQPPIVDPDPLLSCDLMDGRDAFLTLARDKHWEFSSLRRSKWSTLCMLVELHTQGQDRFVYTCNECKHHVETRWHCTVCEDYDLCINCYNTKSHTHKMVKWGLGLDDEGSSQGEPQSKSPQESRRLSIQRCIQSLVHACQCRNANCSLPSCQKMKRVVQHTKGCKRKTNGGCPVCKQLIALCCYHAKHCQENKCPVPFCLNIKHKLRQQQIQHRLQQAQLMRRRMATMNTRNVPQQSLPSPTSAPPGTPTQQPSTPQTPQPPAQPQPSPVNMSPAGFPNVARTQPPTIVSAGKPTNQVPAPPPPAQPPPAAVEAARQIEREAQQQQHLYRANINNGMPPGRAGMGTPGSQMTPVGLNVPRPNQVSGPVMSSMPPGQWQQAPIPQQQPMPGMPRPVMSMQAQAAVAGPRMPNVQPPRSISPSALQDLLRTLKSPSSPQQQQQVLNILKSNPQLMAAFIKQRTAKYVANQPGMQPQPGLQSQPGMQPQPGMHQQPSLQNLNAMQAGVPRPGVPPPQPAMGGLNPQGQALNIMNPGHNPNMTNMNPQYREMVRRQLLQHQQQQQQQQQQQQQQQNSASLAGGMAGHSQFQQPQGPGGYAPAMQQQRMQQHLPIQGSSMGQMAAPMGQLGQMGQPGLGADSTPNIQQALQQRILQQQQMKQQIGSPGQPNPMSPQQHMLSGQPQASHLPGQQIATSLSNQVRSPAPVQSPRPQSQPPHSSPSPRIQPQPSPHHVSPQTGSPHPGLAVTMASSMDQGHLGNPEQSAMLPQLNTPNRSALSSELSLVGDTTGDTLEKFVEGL
CBP KIX-GST, wild type: residues 586-665 of P45481
UniProt P38533: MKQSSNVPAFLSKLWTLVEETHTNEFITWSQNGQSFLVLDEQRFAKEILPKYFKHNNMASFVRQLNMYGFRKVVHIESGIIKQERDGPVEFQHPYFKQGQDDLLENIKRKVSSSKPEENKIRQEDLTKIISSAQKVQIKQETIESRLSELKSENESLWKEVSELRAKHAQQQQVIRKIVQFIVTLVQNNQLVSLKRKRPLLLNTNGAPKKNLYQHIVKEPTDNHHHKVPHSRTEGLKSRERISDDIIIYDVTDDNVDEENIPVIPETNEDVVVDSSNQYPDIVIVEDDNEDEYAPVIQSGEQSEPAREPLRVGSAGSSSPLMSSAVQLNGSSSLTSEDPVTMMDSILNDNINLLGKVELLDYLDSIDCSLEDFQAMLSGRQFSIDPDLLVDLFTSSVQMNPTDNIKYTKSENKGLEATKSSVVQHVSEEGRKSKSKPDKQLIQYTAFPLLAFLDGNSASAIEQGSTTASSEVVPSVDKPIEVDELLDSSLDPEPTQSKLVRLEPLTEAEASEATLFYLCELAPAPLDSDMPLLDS
UniProt Q92793: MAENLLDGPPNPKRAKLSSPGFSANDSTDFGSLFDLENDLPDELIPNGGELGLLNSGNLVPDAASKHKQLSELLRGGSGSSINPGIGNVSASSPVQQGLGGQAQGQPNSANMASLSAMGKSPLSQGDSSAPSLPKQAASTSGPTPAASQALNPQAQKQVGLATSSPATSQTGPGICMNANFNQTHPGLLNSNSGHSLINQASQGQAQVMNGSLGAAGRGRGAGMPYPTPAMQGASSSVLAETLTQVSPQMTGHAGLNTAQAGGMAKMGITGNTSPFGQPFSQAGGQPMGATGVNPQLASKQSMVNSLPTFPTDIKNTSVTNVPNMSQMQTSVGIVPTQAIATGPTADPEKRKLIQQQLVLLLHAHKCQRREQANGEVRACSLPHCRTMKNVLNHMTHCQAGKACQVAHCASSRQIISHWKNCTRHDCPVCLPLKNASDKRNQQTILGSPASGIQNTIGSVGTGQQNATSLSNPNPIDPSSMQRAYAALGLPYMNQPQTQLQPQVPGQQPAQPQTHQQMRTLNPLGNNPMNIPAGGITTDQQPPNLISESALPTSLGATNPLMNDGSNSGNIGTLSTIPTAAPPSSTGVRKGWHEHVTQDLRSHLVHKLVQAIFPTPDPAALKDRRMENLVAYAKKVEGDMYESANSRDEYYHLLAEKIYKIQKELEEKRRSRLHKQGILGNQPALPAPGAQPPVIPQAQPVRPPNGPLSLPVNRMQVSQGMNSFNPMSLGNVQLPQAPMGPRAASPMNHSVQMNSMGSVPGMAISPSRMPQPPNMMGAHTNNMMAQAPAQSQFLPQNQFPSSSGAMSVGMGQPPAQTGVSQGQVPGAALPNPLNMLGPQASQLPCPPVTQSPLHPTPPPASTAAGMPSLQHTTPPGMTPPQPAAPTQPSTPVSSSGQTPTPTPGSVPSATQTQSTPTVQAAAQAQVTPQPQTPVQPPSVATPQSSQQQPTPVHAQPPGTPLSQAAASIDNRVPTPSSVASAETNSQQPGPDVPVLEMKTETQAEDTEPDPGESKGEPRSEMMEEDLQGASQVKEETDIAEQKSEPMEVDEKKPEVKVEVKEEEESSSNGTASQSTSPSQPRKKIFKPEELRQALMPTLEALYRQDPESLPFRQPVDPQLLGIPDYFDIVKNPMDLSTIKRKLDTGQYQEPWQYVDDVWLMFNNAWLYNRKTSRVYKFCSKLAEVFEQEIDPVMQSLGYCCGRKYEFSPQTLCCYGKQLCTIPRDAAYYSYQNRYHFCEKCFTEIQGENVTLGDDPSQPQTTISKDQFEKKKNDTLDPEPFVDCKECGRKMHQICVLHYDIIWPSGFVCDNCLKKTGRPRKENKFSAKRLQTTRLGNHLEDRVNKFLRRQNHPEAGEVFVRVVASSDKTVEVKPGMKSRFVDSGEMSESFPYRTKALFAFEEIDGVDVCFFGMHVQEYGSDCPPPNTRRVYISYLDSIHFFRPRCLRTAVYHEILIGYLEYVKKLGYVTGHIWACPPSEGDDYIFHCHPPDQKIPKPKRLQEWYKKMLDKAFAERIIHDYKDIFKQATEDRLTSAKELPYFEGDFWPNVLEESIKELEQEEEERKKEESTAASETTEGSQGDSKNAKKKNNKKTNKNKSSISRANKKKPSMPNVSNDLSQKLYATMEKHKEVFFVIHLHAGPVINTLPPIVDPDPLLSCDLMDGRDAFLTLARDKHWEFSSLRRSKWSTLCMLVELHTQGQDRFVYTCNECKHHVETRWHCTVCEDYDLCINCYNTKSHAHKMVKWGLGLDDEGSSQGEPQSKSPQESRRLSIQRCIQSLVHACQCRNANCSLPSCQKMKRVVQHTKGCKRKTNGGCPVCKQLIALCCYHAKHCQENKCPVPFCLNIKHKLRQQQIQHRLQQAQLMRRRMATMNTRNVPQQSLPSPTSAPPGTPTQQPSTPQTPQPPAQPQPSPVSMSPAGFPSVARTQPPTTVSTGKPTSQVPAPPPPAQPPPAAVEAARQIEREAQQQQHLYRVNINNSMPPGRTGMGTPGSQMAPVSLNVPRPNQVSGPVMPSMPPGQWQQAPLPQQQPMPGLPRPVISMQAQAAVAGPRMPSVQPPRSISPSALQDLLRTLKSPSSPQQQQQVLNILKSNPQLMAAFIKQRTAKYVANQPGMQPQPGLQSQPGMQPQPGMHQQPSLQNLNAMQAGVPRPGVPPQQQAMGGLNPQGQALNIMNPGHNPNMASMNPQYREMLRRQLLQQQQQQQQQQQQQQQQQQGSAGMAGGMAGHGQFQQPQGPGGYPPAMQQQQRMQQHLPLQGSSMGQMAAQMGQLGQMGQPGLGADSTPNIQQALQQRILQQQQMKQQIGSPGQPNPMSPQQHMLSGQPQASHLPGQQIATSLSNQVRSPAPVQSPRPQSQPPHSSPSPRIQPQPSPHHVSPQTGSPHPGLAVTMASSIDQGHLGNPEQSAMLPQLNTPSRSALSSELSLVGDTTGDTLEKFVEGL

Legend:
[1] = target: HSF2, endogenous human (SH-SY5Y) (human (endogenous in SH-SY5Y)) (UniProt Q03933); assay: co-IP; endogenous proteins; SH-SY5Y cells lysed in Lysis buffer A; IP with anti-HSF2; immunoblot
[2] = target: biotinylated recombinant full-length HSF2 (recHSF2) (UniProt Q03933); assay: BLI; Octet Red; biotinylated recombinant HSF2 immobilised at 100 nM on streptavidin biosensors in PBS; analytes diluted in PBS at 100 nM, association 600 s; Kd with a 1:1 stoichiometry model, global fit with Rmax unlinked by sensor; both purified
CBP KIX-GST, wild type = CBP KIX-GST, wild type (UniProt P45481); assay: co-IP; in vitro interaction of wild-type or mutated CBP KIX-GST and SNAP-HSF2 recombinant proteins produced in bacteria and reticulocyte lysates; IP GST; immunoblot
[3] = target: HSF2 (heat-shock factor 2), endogenous mouse (mouse (endogenous in embryonic cortex and N2A)) (UniProt P38533); assay: co-IP; endogenous proteins; mouse embryonic cortex (E13, E15) lysed in Lysis buffer A (25 mM Hepes pH 8, 100 mM NaCl, 5 mM EDTA, Triton X-100 0.5%); IP overnight with anti-HSF2, non-relevant IgG as negative control; immunoblot for CBP and EP300
[4] = target: HSF2 (heat-shock factor 2), endogenous mouse (mouse (endogenous in embryonic cortex and N2A)) (UniProt P38533); assay: co-IP; endogenous proteins; N2A cells lysed in Lysis buffer A; IP with anti-HSF2; immunoblot
human HSF2-YFP (human) [5] = target: human HSF2-YFP (human) (UniProt Q03933); assay: co-IP; HEK 293 cells transfected with YFP-tagged hHSF2 and HA-tagged CBP or EP300; HSF2 precipitated with GFP-Trap, Trap-A control beads; CBP or EP300 detected with anti-HA
human HSF2-YFP (human) [6] = target: human HSF2-YFP (human) (UniProt Q03933); assay: fluorescence three-hybrid assay (F3H); BHK cells with a stably integrated Lac-operator array, transfected with GBP-LacI, YFP-HSF2 and CBP-HA or EP300-HA; co-recruitment at the LacO array seen by confocal microscopy (anti-HA or anti-CBP staining)

Substance: EP300, endogenous human (SH-SY5Y) (from UniProt Q09472 1-2414) (enzyme)
- binding [1]: binds

Substance: CBP, endogenous human (SH-SY5Y) (from UniProt Q92793 1-2442) (enzyme)
- binding [1]: binds

Substance: CBP PHD domain (1280-1321), 6 His-tagged (from UniProt P45481 1280-1321) (domain or fragment)
- binding [2]: binds

Substance: CBP RING domain (1205-1279), 6 His-tagged (from UniProt P45481 1205-1279) (domain or fragment)
- binding [2]: no binding (tested: 100 nM)

Substance: CBP (CREB-binding protein), endogenous mouse (from UniProt P45481 1-2441) (enzyme)
- binding [3]: binds
- binding [4]: binds

Substance: CBP Bromodomain (1096-1205), 6 His-tagged (from UniProt P45481 1096-1205) (domain or fragment)
- binding [2]: no binding (tested: 100 nM)

The next lines start with the values.

- binding [2]: no binding (tested: 100 nM)
Substance: CBP HAT domain (1322-1700), 6 His-tagged (from UniProt P45481 1322-1700) (domain or fragment)

- binding (CBP KIX-GST, wild type): binds
Substance: SNAP-HSF2 recombinant protein (from UniProt Q03933 1-536)

- binding (human HSF2-YFP (human) [5]): binds
- binding (human HSF2-YFP (human) [6]): binds
Substance: CBP-HA (from UniProt Q92793 1-2442) (enzyme)

- binding (human HSF2-YFP (human) [5]): binds
- binding (human HSF2-YFP (human) [6]): binds
Substance: EP300-HA (from UniProt Q09472 1-2414) (enzyme)
